PubChem BioAssay AID2546 (National Center for Advancing Translational Sciences (NCATS), 2010)
Hit rate of the full screen: of about 310,000 compounds, about 11,000 (3.5%) were called active. Another 8% or so got no clear call; they are omitted. Calls come from the whole dose curve; as a rule, active = well fitted inhibition curve with a large enough effect; inconclusive = small, poorly fitted or top-dose-only effect, or effect the other way; inactive = flat fitted curve, though single readings scatter. The list shows a part of the results, in another mix than the full data. More than one record can exist for a structure, and the calls need not agree.

assay: VP16 counterscreen qHTS for inhibitors of ROR gamma transcriptional activity; conditions: Drosophila S2 Gal4-VP16 UAS-luciferase, luminescence, 20 h; series mostly up to 53.6 µM; activity, negative = inhibition: at the top concentration;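 note: Gal4-VP16 expression switched on by copper sulfate through the metallothionein promoter; nearly all actives have a fitted effect of over 50% in size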
Description: NIH Molecular Libraries Probe Production Network [MLPCN]
NIH Chemical Genomics Center [NCGC]
Assay Provider: Dan Littman, New York University
The retinoic acid-related orphan receptor (ROR) gamma is a transcription factor that has a central role in the differentiation of Th17 cells, a subset of T helper cells that secrete the inflammatory cytokines IL-17, IL-17F, and IL-22. Th17 cells have been implicated in graft versus host disease, autoimmune disease and asthma. ROR gamma is induced in naive T helper cells in the presence of TGF-beta combined with IL-6, IL-21, or IL-23, and thereafter directs the expression of the Th17 lineage cytokines. To identify nonspecific inhibitors, a Drosophila Schneider cell line was stably transfected with two vectors: a gene expressing a fusion of the Gal4 DNA binding domain and VP16 transactivation domain under the control of the metallothionine promoter and a Photinus luciferase reporter regulated by the Gal4 binding site enhancer, UAS. […] Small molecule inhibitors that inhibit components common to the RORgt and VP16 assays, such as the Gal4 DNA binding domain or the UAS luciferase reporter, will be active in both assays and thus scored as nonspecific.
For screening, 600 cells in 4 uL/well were dispensed into white solid 1536-well plates (Grenier) using a solenoid-based dispenser. Following transfer of 23 nL compound or DMSO vehicle by a pin tool, the plates were incubated 1 hr at ambient temperature, and 1 uL/well copper sulfate (700 uM final concentration) was added. The plates were centrifuged 15 s at 1000 RPM and incubated 20 hr at ambient temperature. After addition of 1.5 uL Photinus luciferase detection reagent, the plates were incubated 10 min at ambient temperature and then read by a ViewLux (Perkin Elmer) to detect luminescence.
% is set by controls: 0 for no effect and ±100 for the full control effect; potency is the fitted concentration of half-maximal effect.

| SMILES | activity, negative = inhibition | Potency |
| --- | --- | --- |
| OC(c1ccccc1)(c1ccccc1)C1CCNCC1 | inactive: -11.3% [at 17 µM] | – |
| O=C1NC(=O)N(Cc2ccccc2)C(=O)/C1=C\C=C\c1ccco1 | inactive: -4.18% [at 10 µM] | – |
| CC(=O)OC1C[C@H](O[C@@H]2C(O)C[C@H](O[C@@H]3C(O)C[C@@H](OC4CC[C@]5(C)C(CCC6C5CC(O)[C@@]5(C)C(C7=CC(=O)OC7)CC[C@@]65O)C4)OC3C)OC2C)O[C@H](C)[C@H]1O[C@H]1OC(CO)C(O)C(O)C1O (stereo partly drawn) | inactive: -2.19% | – |
| O=C1C2CCN(CC2)C1(CO)CO | inactive: -13.9% | – |
| O=C1C(Cl)=C(Cl)C(=O)C(Cl)=C1Cl | inactive: -0.562% | – |
| Cc1ccc2c(Cl)cc(Cl)c(O)c2n1 | inactive: -4.05% | – |
| CC(C)[C@@]1(NC(=O)[C@@H]2C[C@H]3c4cccc5[nH]cc(c45)C[C@@H]3N(C)C2)O[C@]2(O)[C@H]3CCCN3C(=O)[C@H](Cc3ccccc3)N2C1=O | inactive: -1.05% [at 17 µM] | – |
| CN(C)C(=O)Oc1ccc[n+](C)c1 | inactive: -2.07% | – |
| CC(C)C[C@H]1C(=O)N2CCC[C@@H]2[C@]2(O)O[C@](NC(=O)[C@H]3C=C4c5cccc6[nH]c(Br)c(c56)C[C@H]4N(C)C3)(C(C)C)C(=O)N12 | inactive: -9.73% [at 17 µM] | – |
| Cc1ccc(N)c(N)c1 | inactive: -4.82% | – |
| C=C(C)[C@H]1CN[C@H](C(=O)O)[C@@H]1CC(=O)O | inactive: 2.83% | – |
| C=C(C)CN1CC[C@]23c4c5ccc(O)c4O[C@H]2c2[nH]c4ccccc4c2C[C@@]3(O)C1C5 | inactive: -20.3% | – |
| CO/C1=C\C(C)=C\[C@@H](C)[C@@H](O)[C@@H](C)C/C(C)=C/C=C\[C@H](OC)C([C@@H](C)[C@@H](O)[C@H](C)[C@@]2(O)C[C@@H](O)[C@H](C)C(C(C)C)O2)OC1=O (stereo partly drawn) | inactive: -0.652% [at 1.91 µM] | – |
| CC1(C)C(=O)C=C[C@]2(C)[C@H]3CC[C@@]4(C)[C@H](c5ccoc5)OC(=O)[C@H]5O[C@]54[C@]3(C)[C@H](O)C[C@@H]12 | inactive: -15.3% | – |
| CCCC/C(C)=C/[C@@H](NP(=O)(c1ccccc1)c1ccccc1)c1ccccc1 | inactive: -14% | – |
| COc1ccc(CN2C(=O)NC(=O)/C(=C\c3ccc(OC)c(OC)c3OC)C2=O)cc1 | inactive: 18.8% | – |
| O=C/C=C/c1ccccc1 | inactive | – |
| CC(=O)N1CCN(c2ccc(OC[C@H]3CO[C@](Cn4ccnc4)(c4ccc(Cl)cc4Cl)O3)cc2)CC1 | inactive | – |
| O=[N+]([O-])c1ccc(C2[C@H]3C(c4ccccc4)=NC4(CCCC4)N23)cc1 (stereo partly drawn) | inactive: -3.95% | – |
| O=C(c1ccc(Cl)cc1)C1CCCN(Cc2ccc3ncccc3c2)C1 (stereo not drawn) | – | active: 7.08 µM |
| Cc1cc(SCc2sc(-c3ccc(C(F)(F)F)c(F)c3)nc2C)ccc1OCC(=O)O | inactive: 12.8% | – |
| O=C1/C(=C\c2ccncc2)N2CCC1CC2 | inactive: 1.3% | – |
| O=C1NC(=O)N(CCC2=CCCCC2)C(=O)/C1=C/c1cccs1 | inactive: 6.43% | – |
| CC[C@@H]1CN2CCc3cc(OC)c(OC)cc3[C@@H]2C[C@@H]1C[C@H]1NCCc2cc(OC)c(OC)cc21 | inactive: -94.5% | – |
| S=C=Nc1cccc2ccccc12 | – | active: 12.6 µM |
| O=C(NC(=O)c1c(F)cccc1F)Nc1cc(Cl)c(OC(F)(F)C(F)C(F)(F)F)cc1Cl (stereo not drawn) | inactive: -0.645% | – |
| O=C(Nc1ccc(Oc2ccc(Cl)cc2)c(Cl)c1)c1cc(I)cc(I)c1O | inactive: 0.246% | – |
| Oc1ccc2c3c1O[C@H]1c4[nH]c5ccccc5c4C[C@@]4(O)C(C2)N(CC2CC2)CC[C@]314 | inactive: -0.0263% | – |
